Assay results as given in article PMC8964761 (2022).

B1: dimeric suPAR (receptor)
chain: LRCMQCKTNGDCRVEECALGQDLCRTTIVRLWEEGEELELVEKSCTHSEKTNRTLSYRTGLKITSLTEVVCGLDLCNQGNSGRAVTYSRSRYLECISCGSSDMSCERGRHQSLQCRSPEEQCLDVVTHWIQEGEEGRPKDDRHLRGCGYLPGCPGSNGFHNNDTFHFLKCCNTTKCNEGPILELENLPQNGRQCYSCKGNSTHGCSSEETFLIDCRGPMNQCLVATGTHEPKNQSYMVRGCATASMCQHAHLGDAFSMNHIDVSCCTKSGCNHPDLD
B2: soluble uPAR (suPAR), monomer (receptor)
chain: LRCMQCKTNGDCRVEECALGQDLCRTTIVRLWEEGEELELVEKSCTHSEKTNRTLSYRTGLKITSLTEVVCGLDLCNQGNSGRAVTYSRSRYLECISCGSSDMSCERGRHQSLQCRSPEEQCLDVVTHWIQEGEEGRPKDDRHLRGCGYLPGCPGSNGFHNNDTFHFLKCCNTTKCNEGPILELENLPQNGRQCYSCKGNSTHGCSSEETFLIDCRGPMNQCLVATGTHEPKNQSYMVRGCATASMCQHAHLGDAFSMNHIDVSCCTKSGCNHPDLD

Legend:
[1] = biological target: full-length single-chain uPA (scuPA) (UniProt P00749, non-covalent, domain-swapped (D1) homodimer; N-glycosylated (Drosophila S2); disulfides; mature residues 1-277 = precursor 23-299; vector-derived N-terminal RS seen in PDB 7E17 omitted); assay: SPR
[2] = biological target: full-length single-chain uPA (scuPA) (UniProt P00749); assay: SPR

Binder	koff [1]	koff [2]
B1	0.000129 s⁻¹	–
B2	–	0.000115 s⁻¹
